Measurements from publication PMC7054675.
Results are given in words; binding and its absence hold for the method and conditions named. In cells and extracts the contact can be indirect. Some entries that bind do so weakly or less than the wild type. For some of these results: Sequences can lack the tags named with a protein.

Chains of the proteins cited; added tags and fusions are not shown.
UniProt Q96BY7: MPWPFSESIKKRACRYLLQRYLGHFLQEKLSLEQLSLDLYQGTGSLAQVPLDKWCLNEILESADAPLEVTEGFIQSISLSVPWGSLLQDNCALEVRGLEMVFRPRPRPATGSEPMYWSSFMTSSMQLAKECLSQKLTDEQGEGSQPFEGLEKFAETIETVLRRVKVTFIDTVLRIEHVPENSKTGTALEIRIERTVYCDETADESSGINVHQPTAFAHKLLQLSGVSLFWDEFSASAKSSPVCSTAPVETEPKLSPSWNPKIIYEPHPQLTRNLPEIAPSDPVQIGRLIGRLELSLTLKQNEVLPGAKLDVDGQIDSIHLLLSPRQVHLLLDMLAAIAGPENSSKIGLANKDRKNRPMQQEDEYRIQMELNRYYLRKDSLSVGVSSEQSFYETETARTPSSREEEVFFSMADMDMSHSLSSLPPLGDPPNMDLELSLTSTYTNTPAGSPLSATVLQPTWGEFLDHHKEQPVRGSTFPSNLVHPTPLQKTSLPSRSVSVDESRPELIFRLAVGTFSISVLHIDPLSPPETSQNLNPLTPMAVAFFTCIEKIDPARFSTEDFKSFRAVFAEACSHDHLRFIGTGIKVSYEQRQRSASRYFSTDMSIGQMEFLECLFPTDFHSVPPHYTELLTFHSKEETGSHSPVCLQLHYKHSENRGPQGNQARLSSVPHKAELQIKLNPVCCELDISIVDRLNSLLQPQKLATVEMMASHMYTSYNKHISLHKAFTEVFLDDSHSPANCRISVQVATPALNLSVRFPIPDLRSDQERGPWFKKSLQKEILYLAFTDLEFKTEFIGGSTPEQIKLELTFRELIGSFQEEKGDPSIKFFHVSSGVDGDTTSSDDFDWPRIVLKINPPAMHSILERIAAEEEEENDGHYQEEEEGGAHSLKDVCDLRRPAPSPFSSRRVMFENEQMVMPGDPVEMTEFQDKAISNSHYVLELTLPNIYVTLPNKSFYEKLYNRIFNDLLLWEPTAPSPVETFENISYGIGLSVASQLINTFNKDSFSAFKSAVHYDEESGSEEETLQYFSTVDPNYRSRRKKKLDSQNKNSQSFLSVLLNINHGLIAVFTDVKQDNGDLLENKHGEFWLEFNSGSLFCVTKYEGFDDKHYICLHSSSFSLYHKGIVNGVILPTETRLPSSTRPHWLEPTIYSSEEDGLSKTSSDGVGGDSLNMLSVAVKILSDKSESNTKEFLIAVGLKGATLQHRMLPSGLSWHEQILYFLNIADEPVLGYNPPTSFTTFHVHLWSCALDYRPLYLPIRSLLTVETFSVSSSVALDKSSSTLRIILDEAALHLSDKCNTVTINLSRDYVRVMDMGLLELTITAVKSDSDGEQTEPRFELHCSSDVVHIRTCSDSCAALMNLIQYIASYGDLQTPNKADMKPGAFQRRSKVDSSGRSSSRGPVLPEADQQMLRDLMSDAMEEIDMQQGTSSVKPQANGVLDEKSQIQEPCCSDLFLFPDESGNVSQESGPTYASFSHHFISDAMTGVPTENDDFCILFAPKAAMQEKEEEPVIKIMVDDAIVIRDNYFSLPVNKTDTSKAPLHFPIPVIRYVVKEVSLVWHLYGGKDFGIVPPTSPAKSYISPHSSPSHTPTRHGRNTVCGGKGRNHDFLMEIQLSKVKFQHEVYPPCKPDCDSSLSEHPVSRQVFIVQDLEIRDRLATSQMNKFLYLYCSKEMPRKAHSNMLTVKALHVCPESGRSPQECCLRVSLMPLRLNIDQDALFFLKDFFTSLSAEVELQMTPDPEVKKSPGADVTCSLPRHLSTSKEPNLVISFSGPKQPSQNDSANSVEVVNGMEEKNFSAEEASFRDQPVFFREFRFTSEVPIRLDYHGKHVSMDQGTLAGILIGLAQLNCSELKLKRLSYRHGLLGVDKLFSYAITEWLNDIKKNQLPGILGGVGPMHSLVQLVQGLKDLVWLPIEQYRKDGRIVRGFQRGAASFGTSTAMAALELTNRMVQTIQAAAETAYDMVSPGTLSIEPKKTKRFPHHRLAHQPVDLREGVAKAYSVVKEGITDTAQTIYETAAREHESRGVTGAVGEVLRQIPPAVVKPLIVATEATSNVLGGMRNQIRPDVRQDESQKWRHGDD

Columns and labels:
[1] = molecular target: HA‐tagged ATG2A‐mYFS (YFS/AAA) (human) (UniProt Q2TAZ0); assay: co-IP; U2OS ATG2A/B DKO cells stably expressing HA-ATG2A WT, mLIR or mYFS, transfected with GFP-GABARAP, complete medium or starved 2 h (EBSS); anti-HA beads; blots for WIPI4 and GFP
[2] = molecular target: HA‐tagged ATG2A‐WT (human) (UniProt Q2TAZ0); assay: as above
[3] = molecular target: HA‐tagged ATG2A‐mLIR (FCIL/AAAA) (human) (UniProt Q2TAZ0); assay: as above
[4] = molecular target: GFP‐tagged endogenous ATG2A (CRISPR/Cas9 knock‐in) (human (endogenous in U2OS)) (UniProt Q2TAZ0); assay: co-IP; U2OS WT or GFP-ATG2A knock-in cells in complete medium or starved 2 h; lysates on anti-GFP nanobody agarose; blots for endogenous WIPI4, LC3B, GABARAP (pan)
[5] = molecular target: T1, HA‐tagged ATG2A‐WT (human), Q2TAZ0; assay: co-IP; U2OS ATG2A/B DKO cells stably expressing HA-ATG2A WT, mLIR or mYFS, transfected with GFP-GABARAP, complete medium or starved 2 h (EBSS); anti-HA beads; blots for WIPI4 and GFP; settings: remark: other sources report otherwise
T1 chain: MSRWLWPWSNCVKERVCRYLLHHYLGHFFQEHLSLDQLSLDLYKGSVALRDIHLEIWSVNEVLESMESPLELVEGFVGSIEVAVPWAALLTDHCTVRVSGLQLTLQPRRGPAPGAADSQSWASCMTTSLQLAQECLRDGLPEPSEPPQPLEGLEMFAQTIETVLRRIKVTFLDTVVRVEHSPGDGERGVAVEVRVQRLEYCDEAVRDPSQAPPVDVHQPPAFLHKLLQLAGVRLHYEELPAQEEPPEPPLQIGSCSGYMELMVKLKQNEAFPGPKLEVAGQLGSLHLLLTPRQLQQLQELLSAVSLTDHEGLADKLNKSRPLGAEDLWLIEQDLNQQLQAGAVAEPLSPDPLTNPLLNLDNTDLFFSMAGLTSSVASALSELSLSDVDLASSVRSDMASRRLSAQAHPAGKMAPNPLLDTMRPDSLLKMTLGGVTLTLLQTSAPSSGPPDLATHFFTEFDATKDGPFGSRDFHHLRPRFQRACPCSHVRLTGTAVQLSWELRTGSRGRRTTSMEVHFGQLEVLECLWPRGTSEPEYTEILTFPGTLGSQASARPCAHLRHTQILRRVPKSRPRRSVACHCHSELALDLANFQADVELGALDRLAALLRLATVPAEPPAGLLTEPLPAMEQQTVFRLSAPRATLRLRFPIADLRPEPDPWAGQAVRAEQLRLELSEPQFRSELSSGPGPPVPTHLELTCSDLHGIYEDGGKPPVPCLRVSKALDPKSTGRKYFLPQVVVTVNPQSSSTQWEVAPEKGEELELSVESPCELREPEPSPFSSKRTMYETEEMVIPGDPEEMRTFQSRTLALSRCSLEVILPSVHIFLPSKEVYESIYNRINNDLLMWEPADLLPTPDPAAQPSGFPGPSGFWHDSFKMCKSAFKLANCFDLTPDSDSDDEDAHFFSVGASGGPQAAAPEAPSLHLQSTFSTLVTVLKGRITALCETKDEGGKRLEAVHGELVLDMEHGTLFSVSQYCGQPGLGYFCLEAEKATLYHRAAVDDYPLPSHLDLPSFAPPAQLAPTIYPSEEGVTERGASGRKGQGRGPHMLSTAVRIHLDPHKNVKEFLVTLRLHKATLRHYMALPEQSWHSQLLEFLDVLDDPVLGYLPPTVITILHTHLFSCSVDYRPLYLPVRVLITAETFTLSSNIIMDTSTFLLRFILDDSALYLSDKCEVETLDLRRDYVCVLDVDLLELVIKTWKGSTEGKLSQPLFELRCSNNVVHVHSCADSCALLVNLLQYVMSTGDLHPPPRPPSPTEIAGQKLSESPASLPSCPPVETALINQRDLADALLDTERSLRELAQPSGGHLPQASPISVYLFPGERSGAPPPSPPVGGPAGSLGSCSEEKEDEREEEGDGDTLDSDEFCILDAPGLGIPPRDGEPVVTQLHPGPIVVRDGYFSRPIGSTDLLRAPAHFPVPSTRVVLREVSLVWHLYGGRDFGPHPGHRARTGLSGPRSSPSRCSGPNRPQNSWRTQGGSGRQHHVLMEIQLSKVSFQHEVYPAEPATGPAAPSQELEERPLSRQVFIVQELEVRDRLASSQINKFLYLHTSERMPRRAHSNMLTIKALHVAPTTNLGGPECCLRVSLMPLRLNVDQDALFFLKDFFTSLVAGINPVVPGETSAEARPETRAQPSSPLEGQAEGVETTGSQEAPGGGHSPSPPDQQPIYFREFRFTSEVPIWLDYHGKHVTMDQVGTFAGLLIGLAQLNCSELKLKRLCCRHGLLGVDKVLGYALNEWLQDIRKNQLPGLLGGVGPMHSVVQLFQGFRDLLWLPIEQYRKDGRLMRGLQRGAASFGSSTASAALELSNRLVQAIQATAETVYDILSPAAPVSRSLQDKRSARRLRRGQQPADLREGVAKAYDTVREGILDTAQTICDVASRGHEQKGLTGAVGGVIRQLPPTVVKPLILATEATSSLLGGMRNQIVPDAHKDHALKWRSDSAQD

[6] = molecular target: ATG2B, endogenous in HEK293T cells (human (endogenous in HEK293T)) (UniProt Q96BY7); assay: co-IP; GFP alone, GFP-GABARAP or GFP-GABARAP with increasing concentrations of mCherry-WIPI4 expressed in HEK293T for 24 h; GFP-TRAP beads; blots for endogenous ATG2A and ATG2B
[7] = molecular target: ATG2A, endogenous in HEK293T cells (human (endogenous in HEK293T)) (UniProt Q2TAZ0); assay: as above

B1: WIPI4 (WDR45), endogenous in U2OS cells (protein, UniProt Q9Y484 1-360)
chain: MTQQPLRGVTSLRFNQDQSCFCCAMETGVRIYNVEPLMEKGHLDHEQVGSMGLVEMLHRSNLLALVGGGSSPKFSEISVLIWDDAREGKDSKEKLVLEFTFTKPVLSVRMRHDKIVIVLKNRIYVYSFPDNPRKLFEFDTRDNPKGLCDLCPSLEKQLLVFPGHKCGSLQLVDLASTKPGTSSAPFTINAHQSDIACVSLNQPGTVVASASQKGTLIRLFDTQSKEKLVELRRGTDPATLYCINFSHDSSFLCASSDKGTVHIFALKDTRLNRRSALARVGKVGPMIGQYVDSQWSLASFTVPAESACICAFGRNTSKNVNSVIAICVDGTFHKYVFTPDGNCNREAFDVYLDICDDDDF
binding [1]: no binding
binding [2]: binds
binding [3]: binds
binding [4]: binds

B2: GFP‐tagged GABARAP (in U2OS ATG2A/B double‐knockout cells), O95166 1-117 (protein)
chain: MKFVYKEEHPFEKRRSEGEKIRKKYPDRVPVIVEKAPKARIGDLDKKKYLVPSDLTVGQFYFLIRKRIHLRAEDALFFFVNNVIPPTSATMGQLYQEHHEEDFFLYIAYSDESVYGL
binding [5]: binds

B3: mCherry‐tagged WIPI4 (WDR45) (protein, UniProt Q9Y484 1-360)
chain: B1 chain
binding [6]: binds
binding [7]: binds
